In PubChem BioAssay AID2546 (National Center for Advancing Translational Sciences (NCATS), 2010):
Hit rate of the full screen: of about 310,000 compounds, about 11,000 (3.5%) were called active. Inconclusive means that the source gave no clear call. Such entries were picked first, then a sample of the others. Calls come from the whole dose curve; as a rule, active = well fitted inhibition curve with a large enough effect; inconclusive = small, poorly fitted or top-dose-only effect, or effect the other way; inactive = flat fitted curve, though single readings scatter. No potency is given beside an inconclusive call; the fits are too rough.

experiment: VP16 counterscreen qHTS for inhibitors of ROR gamma transcriptional activity; settings: Drosophila S2 Gal4-VP16 UAS-luciferase, luminescence, 20 h; activity, negative = inhibition: at 53.6 µM (top of the series);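 note: Gal4-VP16 expression switched on by copper sulfate through the metallothionein promoter; nearly all actives have a fitted effect of over 50% in size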
% is set by controls: 0 for no effect and ±100 for the full control effect; potency is the fitted concentration of half-maximal effect; tags give direction and shape of the fitted curve.

| Structure (SMILES) | Potency | activity, negative = inhibition |
| --- | --- | --- |
| O=C1[C@H](CC[C@H](O)c2ccc(F)cc2)[C@@H](c2ccc(O)cc2)N1c1ccc(F)cc1 | inconclusive [inhibitor, single point] |  |
| CCOC(=O)C1=NN(C(=O)c2ccc(OC)cc2)C(O)(c2ccc(Cl)cc2)C1 (stereo not drawn) | inconclusive [inhibitor, single point] |  |
| CCCCCC(=O)NC(=S)Nc1ccccc1C(=O)OC | inconclusive [inhibitor, single point] |  |
| Cc1c(C(=O)N/N=C/c2cccnc2)sc(N)c1C#N | inconclusive [inhibitor, partial curve] |  |
| COc1ccc(N2C(=O)C(Cl)=C(N3CCCC(C)C3)C2=O)cc1 (stereo not drawn) | inconclusive [inhibitor, single point] |  |
| O=C(N/N=C\c1ccc([N+](=O)[O-])o1)c1cncc(Br)c1 | inconclusive [inhibitor, single point] |  |
| O=C(O)C1CC=CCC1C(=O)Nc1ccccc1 (stereo not drawn) |  | inactive: 11.8% |
| CC(=O)Nc1sc2c(c1C#N)CCCC2 | inconclusive [activator, single point] |  |
| COC(=O)c1c(NC(=O)CCc2ccc(C)o2)sc(C)c1C | active: 12.6 µM |  |
| COc1ccc(-c2cn[nH]c2-c2ccc(OCc3ccc([N+](=O)[O-])cc3)cc2O)cc1 | active: 2 µM |  |
| Cc1noc(C)c1CSCC(=O)N1CCN(c2ccc([N+](=O)[O-])cc2)CC1 | inconclusive [inhibitor, single point] |  |
| CSc1ccccc1NC(=O)CN(C)CC(=O)Nc1ccc(Cl)cc1F | inconclusive [inhibitor, single point] |  |
| CN1CCN(S(=O)(=O)c2ccc(NC(=S)NC(=O)C3CCCCC3)cc2)CC1 | inconclusive [inhibitor, single point] |  |
| Cc1cc(NC(=O)CSc2nnc(-c3ccc4c(c3)OCCO4)o2)no1 | inconclusive [inhibitor, single point] |  |
| CC(C)=CCC1=C(O)c2ccccc2C(=O)C1=O | inconclusive [inhibitor, single point] |  |
| O=C(NNC(=O)c1ccc(Cn2cccn2)o1)NC12CC3CC(CC(C3)C1)C2 |  | inactive: 5.32% |
| COc1ccc(N2CCN(C(=O)c3ccc(C(C)(C)C)cc3)CC2)cc1 | inconclusive [inhibitor, single point] |  |
| COC(=O)C1(C(=O)OC)NOC2C(=O)N(c3ccc(Cl)cc3Cl)C(=O)C21 (stereo not drawn) | inconclusive [activator, single point] |  |
